# Measured values from publication PMC4336329 (PLoS ONE, 2015).
# In all, about 310,000 compounds went through this assay and about 14,000 (4.5%) showed an effect of 50% or more. Effects have a minus sign here. The list shows a part of the results.
# Molecular target: human ether-à-go-go-related gene (hERG) potassium channel (human, UniProt Q12809)
# Test: primary screen, population patch clamp on CHO cells stably expressing hERG
# 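Note: peak tail current of the secondary pulse compared with the same well before compound.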
# human ether-à-go-go-related gene (hERG) potassium channel, sequence (Q12809 whole entry, looked up): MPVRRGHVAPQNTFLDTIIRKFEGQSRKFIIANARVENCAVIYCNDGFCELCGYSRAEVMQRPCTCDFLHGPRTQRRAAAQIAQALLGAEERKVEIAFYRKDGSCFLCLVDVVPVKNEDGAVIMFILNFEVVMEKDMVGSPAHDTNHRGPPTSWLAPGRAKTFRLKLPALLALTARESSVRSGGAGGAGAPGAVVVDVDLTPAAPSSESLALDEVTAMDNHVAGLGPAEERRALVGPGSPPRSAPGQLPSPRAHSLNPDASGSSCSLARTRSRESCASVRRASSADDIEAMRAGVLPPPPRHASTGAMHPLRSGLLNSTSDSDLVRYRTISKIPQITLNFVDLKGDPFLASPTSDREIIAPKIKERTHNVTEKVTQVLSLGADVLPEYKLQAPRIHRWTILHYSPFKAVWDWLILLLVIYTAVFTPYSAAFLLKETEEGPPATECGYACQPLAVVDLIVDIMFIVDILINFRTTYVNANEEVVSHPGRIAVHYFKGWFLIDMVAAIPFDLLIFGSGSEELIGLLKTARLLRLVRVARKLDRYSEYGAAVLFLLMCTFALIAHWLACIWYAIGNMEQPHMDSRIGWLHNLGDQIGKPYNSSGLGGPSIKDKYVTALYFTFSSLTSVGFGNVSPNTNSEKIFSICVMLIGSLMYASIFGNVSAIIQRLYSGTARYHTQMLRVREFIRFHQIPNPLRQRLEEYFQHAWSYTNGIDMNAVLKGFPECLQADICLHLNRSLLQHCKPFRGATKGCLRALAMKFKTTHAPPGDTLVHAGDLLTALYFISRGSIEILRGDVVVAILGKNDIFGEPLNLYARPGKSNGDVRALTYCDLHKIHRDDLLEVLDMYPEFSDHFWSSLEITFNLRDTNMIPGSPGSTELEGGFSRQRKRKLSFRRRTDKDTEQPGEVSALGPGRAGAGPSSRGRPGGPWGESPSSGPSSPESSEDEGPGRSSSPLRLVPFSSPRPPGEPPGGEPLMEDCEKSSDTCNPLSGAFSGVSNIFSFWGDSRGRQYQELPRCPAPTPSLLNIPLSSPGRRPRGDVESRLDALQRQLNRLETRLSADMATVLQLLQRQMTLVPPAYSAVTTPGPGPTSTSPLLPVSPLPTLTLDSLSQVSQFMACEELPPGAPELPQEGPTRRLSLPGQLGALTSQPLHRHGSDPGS
row,Structure (SMILES),"hERG current change (%, negative = inhibition) at 10uM [%]"
1,CC1=C(C)CC(C(=O)c2ccccc2)C(C(=O)O)C1 (centres unmarked),11.5
2,CCn1c(SCC(=O)Nc2cccc(C)c2)nc2ccccc2c1=O,-26.3
3,COc1ccc(Cn2c(=O)[nH]c3cc(C(=O)Nc4ccc(N5CCN(C)CC5)cc4)ccc32)cc1,14.6
4,Cc1cc(C)cc(NC(=O)CCC(=O)Nc2nnc(C(F)(F)F)s2)c1,5.51
5,Cc1cc(C)nc(NS(=O)(=O)c2ccc(NC(=S)NC(=O)c3ccco3)cc2)n1,-7.2
6,c1ccc(Cc2nc(-c3ccccn3)no2)cc1,-0.706
7,Nc1nc2c(ccc3ccccc32)s1,3.14
8,COc1ccc(NC(=O)CNc2cc(S(=O)(=O)N3CCOCC3)ccc2NCC2CCCO2)cc1 (centres unmarked),-18.3
9,CC1(C)C(=O)OC(c2cccs2)C(C)(C)C1=O (centres unmarked),5.77
10,O=c1c2ccccc2nc2n1C(CBr)CN2 (centres unmarked),2.18
11,Cc1ccc2c(c1)N(CC(=O)Nc1ccccc1F)C(=O)CO2,19.9
12,O=C(CC1CS(=O)(=O)CC1CC(=O)Nc1ccc2c(c1)OCCO2)Nc1ccc2c(c1)OCCO2 (centres unmarked),0.0574
13,COc1cc2ccccc2cc1C(=O)N/N=C/c1cccnc1,-25.9
14,Cc1ccc(C(=O)OCC(=O)NCCNC(=O)COC(=O)c2ccc(C)s2)s1,2.13
15,C#CCOCCOCCOCCNc1nc(N2CCN(C(=O)[C@H]([C@@H](C)CC)n3cc([C@@H](N)CC(C)C)nn3)CC2)nc(N2CCN(C(=O)[C@H](Cc3ccc(O)cc3)n3cc([C@@H](N)CC(C)C)nn3)CC2)n1.Cl,9.08
16,COC(=O)c1ccccc1NC(=O)CN(c1ccc(C)cc1)S(C)(=O)=O,-20.7
17,O=C(Cc1ccccc1)Nc1ccc2c(c1)OC1(CCCC1)O2,-17.7
18,Cc1cc(C)c(OCC(=O)Nc2ccccc2N2CCOCC2)c(C)c1,15.1
19,Cc1ccc(S(=O)(=O)CCC(=O)Nc2ccccc2Cl)cc1,4.18

row,Structure (SMILES),"hERG current change (%, negative = inhibition) at 10uM [%]"
1,CCOC(=O)c1c(C)[nH]c(C)c1S(=O)(=O)N(C)CC(=O)Nc1cc(C)ccc1OC,-24.7
2,CC(C)(C)OC(=O)[C@H](Cc1ccccc1)NC(=O)c1nc[nH]c1C(=O)NCCCCC[NH3+].[Cl-],8.32
3,COc1ccc(-n2c(=S)[nH]c3cc(C(=O)O)ccc3c2=O)cc1,16.3
4,Cn1c(SCC(=O)Nc2ccccc2[N+](=O)[O-])nnc1C(F)(F)F,-3.31
5,CCCCN1C(=O)NC(NS(=O)(=O)c2ccc(N)cc2)(C(F)(F)F)C1=O (centres unmarked),5.23
6,CC(C)c1ccc(NC(=O)C(c2ccc3c(c2)OCO3)N2CCCCC2)cc1 (centres unmarked),-22.6
7,O=C1c2cccnc2C(=O)N1c1cccc(-c2nc3ccccc3o2)c1,-0.88
8,COc1ccc(N2CCN(S(=O)(=O)c3ccc(OC)c(C(=O)N4CCCCC4)c3)CC2)cc1,-12
9,CCc1nc2ccccc2c(=O)n1NC(=O)c1c(O)c2ccccc2[nH]c1=O,-1.8
10,CC(C)C[C@@H](CO)N1CCN(Cc2cccc(C#N)c2)CCC1=O,-4.41
11,COc1ccc(C(=O)NCC(=O)OCC(=O)Nc2sccc2C#N)cc1OC,14.3
12,COC(=O)C(CC(=O)c1ccc(Cl)cc1)c1ccc(C(C)C)cc1 (centres unmarked),5.95
13,CCOC(=O)c1ccc(N/C=C/C(=O)C(C)(C)C)cc1,35
14,O=C(O)Cn1cc2c(n1)CCCC2,12.4
15,CC1CN(C(=O)C(C)N2CCN(c3cccc(Cl)c3)CC2)CC(C)O1 (centres unmarked),10.1
16,OC(CNCC1(N2CCCCC2)CCCCC1)COc1ccc(Cl)cc1Cl (centres unmarked),-73.7
17,COCc1c(C(=O)OCc2c(C)noc2C)oc2ccccc12,-9.27
18,CC1SC(c2cccc(Cl)c2)NC1=O (centres unmarked),8.55
19,COc1ccc(-c2cc(C(=O)N3CCC3)c3ccccc3n2)cc1OC,-1.93

row,Structure (SMILES),"hERG current change (%, negative = inhibition) at 10uM [%]"
1,COc1ccc(C2CC(c3cccs3)Nc3nnnn32)cc1 (centres unmarked),-13.3
2,Cc1ccc(/C(O)=C2\C(=O)C(=O)N(CC(C)O)C2c2ccc(N(C)C)cc2)cc1 (centres unmarked),14.7
3,O=C(CN1CCC(C(=O)c2ccc(F)cc2)CC1)Nc1ccccc1,-29.7
4,O=C(NNC(=S)Nc1ccc(F)cc1F)c1ccco1,-10.2
5,S=C(c1ccc(Cl)cc1)N1CCOCC1,2.79
6,COc1ccc(CCNC(=O)c2ccc(Cl)nc2)cc1,4.32
7,COc1ccccc1NS(=O)(=O)c1ccc(NC(C)=O)cc1,5.3
8,CC1=NN(C(=O)c2ccccc2C)C(O)(c2ccc(Cl)cc2)C1 (centres unmarked),13.4
9,CCn1c(N2CCN(S(=O)(=O)CC)CC2)nc2ccccc21,-37.7
10,CCCNC(=O)[C@@H]1CCCN1C(=O)C1CCN(S(=O)(=O)c2ccc(C)cc2)CC1,7.97
11,COCc1cc(C)nc(OCC(=O)N/N=C/c2ccc(O)cc2)c1C#N,-10.9
12,CCc1ccc(-c2nc(CS(=O)CC(=O)NCc3ccccc3)c(C)o2)cc1 (centres unmarked),-14.9
13,Cc1ccc(CN2CCN(Cc3ccon3)CC2CCO)cc1 (centres unmarked),-11.1
14,COc1ccc(C(=S)N2CCN(c3cccc(Cl)c3)CC2)c(OC)c1,3.25
15,COC(=O)c1cc(OC)nc2c1c(=O)n(C)c(=O)n2C,3.17
16,O=C(O)c1cn(-c2ccccc2)nc1-c1ccncc1,35.1
17,COc1ccc(CNC(=S)NCc2ccc(Cl)cc2)cc1OC,-19.9
18,CCOC(=O)C1=C(C)NC(C)=C(C(=O)OCC)C1/C=C/c1ccccc1,0.683
